Assay results taken from patent US9045526B2 (THE REGENTS OF THE UNIVERSITY OF MICHIGAN, priority 2011, dated 2015).
Numbered stars: 1 amine (or outer) side, 2 acyl side, 3 side chain; on linkers, the order of the positions; unused ones are H or OH. Bridge positions count the residues as written; N and C are the ends. Square brackets hold non-standard residues; d marks the D form. Peptide text beside a SMILES is read from it. * marks the point of attachment. βGlc = OC[C@H]1O[C@@H](*)[C@H](O)[C@@H](O)[C@@H]1O; Dmt = Cc1cc(O)cc(C)c1C[C@H](N)C(=O)O; dPen = CC(C)(S)[C@@H](N)C(=O)O; Aic = NC1(C(=O)O)Cc2ccccc2C1; CH2CH2 = C(C[*:2])[*:1]

Columns and labels:
mu-opioid receptor (MOR) [1] = molecular target: T1, mu-opioid receptor (MOR) (Rattus norvegicus, UniProt P33535); assay: [35S]GTPγS binding (G protein stimulation) at MOR; format: biochemical; settings: for maximal [35S]GTPγS stimulation at MOR (% max): percent of stimulation by 10 μM DAMGO
T1 construct: expressed in transfected cells; host or cells: C6 rat glioma cells (C6-MOR), stably transfected

[2] = molecular target: T2, kappa-opioid receptor (KOR) (Homo sapiens, UniProt P41145); assay: [35S]GTPγS binding (G protein stimulation) at KOR; format: biochemical; settings: for [35S]GTPγS stimulation at KOR (% max): percent of standard U69,593
T2 construct: expressed in transfected cells

[3] = molecular target: T3, delta-opioid receptor (DOR) (Rattus norvegicus, UniProt P33533); assay: Whole cell inhibition of forskolin-stimulated adenylyl cyclase, C6-DOR cells; format: cell-based
T3 construct: expressed in transfected cells; host or cells: C6 rat glioma cells (C6-DOR), stably transfected

mu-opioid receptor (MOR) [4] = molecular target: T1, mu-opioid receptor (MOR); assay: Whole cell inhibition of forskolin-stimulated adenylyl cyclase at MOR; format: cell-based; settings: read-out: inhibition of forskolin-stimulated cAMP at MOR
[5] = molecular target: T3, delta-opioid receptor (DOR); assay: [35S]GTPγS binding (G protein stimulation / antagonism of DPDPE) at DOR; format: biochemical; settings: for [35S]GTPγS stimulation at DOR (% max): compared to DPDPE; for G protein stimulation at DOR, in words: up to 10 μM
[6] = Cell permeability assay, Caco-2 monolayer, apical to basolateral; format: in vitro ADME; settings: human; Caco-2, apical pH 6.4 to basolateral pH 7.4, 100 μM peptide; read-out: permeability coefficient (Papp)
Method: Cell Permeability Assay: Caco-2 cells at a passage line of 21 were seeded at a density of 0.3×10^5 cells/well on untreated culture inserts of polycarbonate membrane with 0.4 μm pores and a surface area of 1.12 cm^2. The culture inserts containing the Caco-2 cells were placed in a 12 transwell plate. The DMEM, high glucose culture medium, supplemented with 10% FBS, was generally changed every other day. Transport studies were performed 21 days after seeding upon full differentiation and the TEER values were stable at 500-600Ω cm^2. The study of transport from apical to basolateral was initiated by removal of medium from both sides of the monolayer and replacement with apical buffer, pH 6.4 (500 μL) and basolateral buffer, pH 7.4 (1500 μL), both warmed to 37° C. The cells were incubated for 15 minutes at 37° C., 5% CO2. The buffers were then removed and replaced with 500 μL 100 μM peptide in apical buffer on the apical side and 1500 μL basolateral buffer on the basolateral side, both prewarmed to 37° C. For the duration of the experiment, cells were kept at 37° C. except during the 100 μL sample removal from the basolateral side at predetermined times (15, 30, 45, 60, 75, 90 minutes). The samples were added to 200 μL 0.1% TFA in acetonitrile, and 100 μL of basolateral buffer was added to the basolateral side of the monolayer. […] Samples were analyzed by HPLC.

T2 sequence (P41145 whole entry): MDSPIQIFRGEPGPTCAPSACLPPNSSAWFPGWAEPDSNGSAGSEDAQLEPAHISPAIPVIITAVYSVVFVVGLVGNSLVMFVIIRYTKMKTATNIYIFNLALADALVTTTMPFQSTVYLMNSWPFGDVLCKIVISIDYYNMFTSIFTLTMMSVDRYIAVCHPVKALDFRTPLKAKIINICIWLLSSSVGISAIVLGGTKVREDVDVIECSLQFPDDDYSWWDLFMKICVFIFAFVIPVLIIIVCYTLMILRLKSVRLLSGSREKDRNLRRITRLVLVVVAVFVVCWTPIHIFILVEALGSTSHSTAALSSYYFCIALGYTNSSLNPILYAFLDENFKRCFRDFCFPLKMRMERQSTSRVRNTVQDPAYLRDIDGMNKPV
T3 sequence (P33533 whole entry): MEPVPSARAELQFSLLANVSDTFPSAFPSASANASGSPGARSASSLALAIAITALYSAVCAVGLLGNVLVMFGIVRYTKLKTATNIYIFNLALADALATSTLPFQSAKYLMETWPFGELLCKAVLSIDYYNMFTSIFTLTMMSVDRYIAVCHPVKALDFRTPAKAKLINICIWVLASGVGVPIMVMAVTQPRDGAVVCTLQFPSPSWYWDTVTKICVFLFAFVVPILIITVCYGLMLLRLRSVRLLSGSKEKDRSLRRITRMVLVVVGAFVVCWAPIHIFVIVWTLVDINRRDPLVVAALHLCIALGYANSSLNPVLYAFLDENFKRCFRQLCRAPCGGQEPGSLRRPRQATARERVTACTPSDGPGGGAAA
T1 sequence (P33535 whole entry): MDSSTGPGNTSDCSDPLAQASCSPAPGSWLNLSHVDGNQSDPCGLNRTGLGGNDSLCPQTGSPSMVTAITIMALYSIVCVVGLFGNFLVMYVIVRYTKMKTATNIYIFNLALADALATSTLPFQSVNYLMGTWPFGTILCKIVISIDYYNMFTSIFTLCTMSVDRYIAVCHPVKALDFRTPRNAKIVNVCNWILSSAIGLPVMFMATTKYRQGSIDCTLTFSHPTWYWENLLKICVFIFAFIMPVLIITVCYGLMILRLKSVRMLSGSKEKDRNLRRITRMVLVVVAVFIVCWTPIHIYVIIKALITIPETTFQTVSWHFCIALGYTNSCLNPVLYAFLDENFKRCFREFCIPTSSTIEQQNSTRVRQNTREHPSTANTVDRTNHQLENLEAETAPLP

Cc1cc(O)cc(C)c1C[C@H](N)C(=O)N1Cc2ccccc2C[C@H]1C(=O)NCC(=O)NCc1ccccc1 [Dmt-Tic-Gly-NH-Bzl, reference compound] (HELM PEPTIDE1{[Cc1cc(O)cc(C)c1C[C@H](N)C(=O)[*:2]].[Tic].G.[c1ccc(CN[*:1])cc1]}$$$$V2.0; N-terminus assumed)
EC50 (mu-opioid receptor (MOR) [1]): 1.4 nM
maximal [35S]GTPγS stimulation at MOR (% max) (mu-opioid receptor (MOR) [1]): 7%
[35S]GTPγS stimulation at KOR (% max) [2]: 5%
forskolin stimulation remaining at DOR (decreased from 100%) [3]: 72%
inhibition at 1 µM ([3]; read-out: inhibition of forskolin-stimulated cAMP at DOR): 28%
inhibition at 1 µM (mu-opioid receptor (MOR) [4]): 35%
[35S]GTPγS stimulation at DOR (% max) [5]: 21%
EC50 for [35S]GTPγS stimulation at DOR ([5]; compound alone): No EC50 could be calculated

Cc1cc(O)cc(C)c1C[C@H](N)C(=O)N[C@@H]1CSCCSC(C)(C)[C@H](C(=O)O)NC(=O)C2(Cc3ccccc3C2)NC1=O [Compound 2] (H-[Dmt][dC][Aic][dPen]-OH; linker 2-4 via CH2CH2; N-terminus assumed)
EC50 (mu-opioid receptor (MOR) [1]): 4.1 nM
potency at G protein stimulation relative to endomorphin-2 (mu-opioid receptor (MOR) [1]; MOR): 31 times
potency at G protein stimulation relative to morphine (mu-opioid receptor (MOR) [1]; MOR): 47 times
maximal [35S]GTPγS stimulation at MOR (% max) (mu-opioid receptor (MOR) [1]): 59%
G protein stimulation at KOR, in words [2]: displayed no G protein stimulation
shift in the EC50 for DPDPE-mediated inhibition of adenylyl cyclase ([3]; 100 nM compound): 9.5 fold
% of forskolin stimulation (cAMP) ([3]; 10 μM compound): 91%
Ke (adenylyl cyclase) relative to binding affinity to DOR ([3]; rat, c6-dor cells): 3 fold
rightward shift in the DPDPE concentration-response curve ([35S]GTPγS) ([5]; 100 nM compound): 26 fold

Cc1cc(O)cc(C)c1C[C@H](N)C(=O)N[C@@H]1CSCCSC(C)(C)[C@H](C(=O)N[C@@H](CO)C(N)=O)NC(=O)C2(Cc3ccccc3C2)NC1=O [VRP-19] (H-[Dmt][dC][Aic][dPen]S-NH2; linker 2-4 via CH2CH2)
maximal [35S]GTPγS stimulation at MOR (% max) (mu-opioid receptor (MOR) [1]): 44±11%
G protein stimulation at DOR, in words [5]: either low efficacy partial agonists or produced no measureable G protein stimulation

Cc1cc(O)cc(C)c1C[C@H](N)C(=O)N[C@@H]1CSCCSC(C)(C)[C@H](C(=O)N[C@@H](CO[C@@H]2O[C@H](CO)[C@@H](O)[C@H](O)[C@H]2O)C(N)=O)NC(=O)C2(Cc3ccccc3C2)NC1=O [VRP-26] (H-[Dmt][dC][Aic][dPen]S(βGlc)-NH2; linker 2-4 via CH2CH2; N-terminus assumed)
Papp A→B at 100 μM [6]: 13.4 ± 7.3 ×10⁻⁶ cm/s

Cc1cc(O)cc(C)c1C[C@H](N)C(=O)N[C@@H]1CSCCSC(C)(C)[C@H](C(=O)N[C@@H](CCCNC(=N)N)C(N)=O)NC(=O)C2(Cc3ccccc3C2)NC1=O [VRP-24] (H-[Dmt][dC][Aic][dPen]R-NH2; linker 2-4 via CH2CH2)
maximal [35S]GTPγS stimulation at MOR (% max) (mu-opioid receptor (MOR) [1]): 37.1±11%
G protein stimulation at DOR, in words [5]: either low efficacy partial agonists or produced no measureable G protein stimulation

Cc1cc(O)cc(C)c1C[C@H](N)C(=O)N[C@@H]1CSCCSC(C)(C)[C@H](C(N)=O)NC(=O)C2(Cc3ccccc3C2)NC1=O [Compound 1] (H-[Dmt][dC][Aic][dPen]-NH2; linker 2-4 via CH2CH2; N-terminus assumed)
maximal [35S]GTPγS stimulation at MOR (% max) (mu-opioid receptor (MOR) [1]): 58%
[35S]GTPγS stimulation at KOR (% max) [2]: 3%
[35S]GTPγS stimulation at DOR (% max) [5]: 37%
G protein stimulation at DOR, in words [5]: either low efficacy partial agonists or produced no measureable G protein stimulation
